From the supplement of paper PMC9446081
Among all 39,000 compounds or so, about 220 (0.56%) showed activity. Some of the results follow.

What follows are molecules tested on Escherichia coli K-12 BW25113 (assay: relative growth (OD600 normalised to plate interquartile mean) (fraction); higher = less growth inhibition, active = 0.2 or less). Conditions: 50 µM; LB; incubation time: overnight (16-24 h).
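Also: static incubation at 37 °C against the wild-type strain, values averaged over two biological replicates.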

| SMILES | relative growth |
| --- | --- |
| O=C(C[C@@H]1CC[C@H]2[C@@H](COC[C@@H](O)CN2C(=O)c2cccnc2)O1)NCc1ccc(-c2ccccc2)cc1 | inactive: 1.02 |
| Nc1cccc(-c2cccs2)c1 | inactive: 0.976 |
| Cc1ccc(S(=O)(=O)N2CCN(CC(=O)N/N=C/c3ccccn3)CC2)cc1 | inactive: 0.984 |
| NC(=O)N1C(=O)[C@H]2[C@H](C1=O)[C@H]1C=C(CCCO)[C@@H]2[C@H](c2cccs2)N1Cc1cc2c(cc1Br)OCO2 | inactive: 1.01 |
| COc1ccc2c3c([nH]c2c1)[C@H](CO)N(C[C@]13CCN(CC1)C(=O)CN(C)C)S(=O)(=O)C | inactive: 1.01 |
| COc1ccc(NC(=O)N(C)C[C@@H]2OCc3cn(nn3)CCCC(=O)N([C@@H](C)CO)C[C@@H]2C)c(OC)c1 | inactive: 0.978 |
| CN1CCN(C(=O)C[C@@H]2CC[C@@H]3[C@@H](COc4ccc(NC(=O)c5ccc(F)c(F)c5)cc4C(=O)N3C)O2)CC1 | inactive: 0.999 |
| Nc1nc(=O)[nH]cc1F | inactive: 0.935 |
| C[C@@H]1CN([C@H](C)CO)C(=O)Cc2cc(NC(=O)Cn3cnnn3)ccc2O[C@H]1CN(C)Cc1ccccc1 | inactive: 0.857 |
| COc1ccc(CN(C)C[C@@H]2OCCCC[C@@H](C)Oc3ccc(NC(=O)Nc4ccc5c(c4)OCO5)cc3C(=O)N([C@@H](C)CO)C[C@@H]2C)cc1 | inactive: 0.953 |
| COc1ccccc1CNC(=O)C[C@H]1C[C@H]2c3cc(NC(=O)c4cccnc4)ccc3O[C@H]2[C@H](CO)O1 | inactive: 0.974 |
| O=C(C[C@@H]1C=C[C@H](NS(=O)(=O)c2ccccc2F)[C@H](CO)O1)NCCCN1CCOCC1 | inactive: 1.04 |
| C[C@H](CO)N1C[C@H](C)[C@H](CN(C)Cc2ccc(C(=O)O)cc2)Oc2ccc(NC(=O)Nc3cccc4ccccc34)cc2CC1=O | inactive: 0.994 |
| CN(C)CCCN1c2ccccc2Sc2ccccc21.Cl | inactive: 0.886 |
| C[C@H](CO)N1C[C@H](C)[C@@H](CN(C)Cc2ccc3c(c2)OCO3)Oc2ccc(NC(=O)Cn3cnnn3)cc2C1=O | inactive: 1 |
| COc1ccc(CN(C)C[C@H]2OCCCC[C@@H](C)Oc3ccc(NS(=O)(=O)c4ccc(F)cc4)cc3C(=O)N([C@@H](C)CO)C[C@H]2C)cc1 | inactive: 1.02 |
| Cc1noc(C)c1S(=O)(=O)Nc1ccc2c(c1)C(=O)N([C@H](C)CO)C[C@H](C)[C@H](CN(C)S(=O)(=O)c1c(C)noc1C)O2 | inactive: 1.01 |
| C[C@H](CO)N1C[C@H](C)[C@@H](CN(C)C(=O)C2CCCCC2)Oc2ncc(C#CC3(O)CCCC3)cc2C1=O | inactive: 1.02 |
| Cc1ccc(C(=O)Nc2ccc(Oc3cc4cnn(C)c4cc3-c3cn[nH]c3)c(F)c2)c(=O)n1-c1ccc(F)cc1 | inactive: 1.04 |
| C[C@H]1CCCCO[C@@H](CN(C)S(=O)(=O)c2ccc(F)cc2)[C@@H](C)CN([C@@H](C)CO)C(=O)c2cc(NS(=O)(=O)c3ccc(Cl)cc3)ccc2O1 | inactive: 1 |
| CN(C)CCCNC(=O)C[C@H]1CC[C@H]2[C@@H](COC[C@H](O)CN2S(=O)(=O)c2ccc(F)cc2)O1 | inactive: 0.991 |

| SMILES | relative growth |
| --- | --- |
| C[C@@H]1CCCCO[C@@H](CN(C)C(=O)Nc2ccc3c(c2)OCO3)[C@@H](C)CN([C@H](C)CO)C(=O)c2cc(NC(=O)CCC(F)(F)F)ccc2O1 | inactive: 0.996 |
| CC[C@H](C#CCN1CCOCC1)OC(C)=O | inactive: 1 |
| Cc1ccc(S(=O)(=O)Nc2ccc3c(c2)C(=O)N([C@@H](C)CO)C[C@H](C)[C@@H](CN(C)Cc2ccc4c(c2)OCO4)OCCCC[C@@H](C)O3)cc1 | inactive: 1.01 |
| Cc1noc(C)c1S(=O)(=O)Nc1ccc2c(c1)CC(=O)N([C@H](C)CO)C[C@H](C)[C@@H](CN(C)S(=O)(=O)c1ccc(Cl)cc1)O2 | inactive: 0.939 |
| C[C@H]1CCCCO[C@H](CN(C)Cc2ccc(C(=O)O)cc2)[C@@H](C)CN([C@@H](C)CO)C(=O)c2cc(NC(=O)c3ccccc3)ccc2O1 | inactive: 1.03 |
| C[C@H](CO)N1C[C@H](C)[C@@H](CN(C)C(=O)Cc2ccccc2)Oc2cc(-c3cncnc3)ccc2S1(=O)=O | inactive: 0.973 |
| COc1ccc2c3c(n(c2c1)C)[C@H](CO)N(C[C@]13CCN(CC1)C(=O)CC1CC1)C(=O)CN1CCOCC1 | inactive: 0.994 |
| CN1CCCC(n2nc(Cc3ccc(Cl)cc3)c3ccccc3c2=O)CC1.Cl (stereo unspecified) | inactive: 0.915 |
| COC(=O)c1c(CC[C@@H](CO)NC(=O)N[C@@H](Cc2ccccc2)Cn2cc(-c3ccccc3)nn2)oc(C(=O)N2CCOCC2)c1C(=O)OC | inactive: 0.986 |
| CN(C)CCCNC(=O)C[C@@H]1CC[C@H]2[C@@H](COc3ccc(NC(=O)NC4CCCC4)cc3C(=O)N2C)O1 | inactive: 1.01 |
| CC(C)NC(=O)N(C)C[C@@H]1Oc2c(NC(=O)NC3CCCCC3)cccc2C(=O)N([C@@H](C)CO)C[C@H]1C | inactive: 1.01 |
| C[C@@H]1CCCCO[C@H](CN(C)C(=O)Cc2ccccc2)[C@H](C)CN([C@@H](C)CO)C(=O)c2cc(NS(=O)(=O)c3ccc(Cl)cc3)ccc2O1 | inactive: 1.03 |
| O=C(NCCO)c1cccc(C(=O)NCCO)c1 | inactive: 0.988 |
| Cc1noc(C)c1NC(=O)Nc1ccc2c(c1)C(=O)N([C@H](C)CO)C[C@H](C)[C@H](CN(C)C(=O)Nc1ccc(C(F)(F)F)cc1)OCCCC[C@H](C)O2 | inactive: 1.06 |
| OCCc1ccc(O)c(O[C@H]2O[C@@H](CO)[C@@H](O)[C@@H](O)[C@@H]2O)c1 | inactive: 0.934 |
| CN1C(=O)c2cc(NC(=O)Cc3cccs3)ccc2OC[C@H]2O[C@@H](CC(=O)NCCc3ccncc3)CC[C@H]21 | inactive: 0.886 |
| CCS(=O)(=O)N1C[C@]2(C1)CN([C@H](CO)c1c2c2ccc(cc2n1C)OC)C(=O)CN1CCOCC1 | inactive: 1.03 |
| O=C(O)c1ccc2ccccc2c1 | inactive: 1.02 |
| C[C@@H]1CN([C@H](C)CO)C(=O)Cc2cc(NC(=O)CCC(F)(F)F)ccc2O[C@@H]1CN(C)C(=O)Nc1cccc2ccccc12 | inactive: 0.989 |
| O=C(NC1CCC1)[C@@H]1[C@@H](CO)[C@@H]2Cn3c(cccc3=O)[C@@H]2N1CC1CCOCC1 | inactive: 1.01 |
| COc1ccc(S(=O)(=O)Nc2ccc3c(c2)C(=O)N([C@@H](C)CO)C[C@H](C)[C@H](CN(C)Cc2ccc(-c4ccccc4)cc2)O3)cc1 | inactive: 0.971 |

| SMILES | relative growth |
| --- | --- |
| COc1ccc(S(=O)(=O)N(C)C[C@H]2Oc3ccc(NC(=O)CCN4CCOCC4)cc3CC(=O)N([C@H](C)CO)C[C@H]2C)cc1 | inactive: 1.01 |
| C[C@@H]1CCCCO[C@@H](CN(C)Cc2ccccc2)[C@H](C)CN([C@@H](C)CO)C(=O)c2cc(NS(=O)(=O)c3ccc(F)cc3)ccc2O1 | inactive: 1 |
| C[C@@H]1CN([C@H](C)CO)C(=O)Cc2cc(NC(=O)NC3CCCCC3)ccc2O[C@H]1CN(C)Cc1ccc(C(=O)Nc2ccccc2N)cc1 | inactive: 1 |
| CCN1[C@@H]2c3ccc(-c4ccncc4)c(=O)n3C[C@@H]2[C@@H](CO)[C@@H]1C(=O)NCCc1cn(C)cn1 | inactive: 1 |
| C[C@@H]1CN([C@@H](C)CO)C(=O)Cc2cc(NC(=O)CCC(F)(F)F)ccc2O[C@H]1CN(C)Cc1ccc(Cl)c(Cl)c1 | inactive: 0.978 |
| Cc1ccc(S(=O)(=O)Nc2ccc3c(c2)C(=O)N([C@H](C)CO)C[C@@H](C)[C@@H](CN(C)CC2CCCCC2)OCCCC[C@@H](C)O3)cc1 | inactive: 0.973 |
| CCCC#Cc1cnc2c(c1)C(=O)N([C@@H](C)CO)C[C@@H](C)[C@H](CN(C)S(=O)(=O)c1cn(C)cn1)O2 | inactive: 1.03 |
| COCC(=O)Nc1ccc2c(c1)OC[C@H](C)N(Cc1ccccc1F)C[C@H](C)[C@H](OC)CN(C)C2=O | inactive: 0.946 |
| [N-]=[N+]=Nc1ccccc1[C@H]1OC(c2ccc(OCCCO)cc2)=N[C@@]1(CCS(=O)(=O)c1ccccc1)C(=O)NCc1ccccc1 | inactive: 0.997 |
| Nc1nnc(-c2cccc(Cl)c2Cl)c(N)n1 | inactive: 0.732 |
| CC(C)NC(=O)Nc1ccc2c(c1)CC(=O)N([C@H](C)CO)C[C@H](C)[C@H](CN(C)S(=O)(=O)c1ccccc1)O2 | inactive: 1.03 |
| COc1ccc(S(=O)(=O)Nc2cccc3c2O[C@H](CN(C)C(=O)Nc2cccc4ccccc24)[C@@H](C)CN([C@H](C)CO)C3=O)cc1 | inactive: 1.01 |
| C[C@H]1CN([C@@H](C)CO)C(=O)c2cccc(NC(=O)Nc3ccccc3)c2O[C@H]1CN(C)CC1CCCCC1 | inactive: 1.03 |
| O=C(C[C@H]1CC[C@@H]2[C@H](COC[C@H](O)CN2S(=O)(=O)c2ccccc2)O1)NCCN1CCCC1 | inactive: 1.02 |
| COc1ccc(NC(=O)Nc2ccc3c(c2)CC(=O)N([C@@H](C)CO)C[C@H](C)[C@@H](CN(C)S(C)(=O)=O)O3)cc1 | inactive: 1.02 |
| C[C@@H]1CN([C@H](C)CO)C(=O)c2cc(NS(=O)(=O)c3cccs3)ccc2O[C@@H](C)CCCCO[C@H]1CN(C)S(=O)(=O)c1ccc(Cl)cc1 | inactive: 1.01 |
| C[C@H](CO)N1C[C@H](C)[C@@H](CN(C)C(=O)c2ccccc2)OCCCC[C@H](C)Oc2ccc(NC(=O)NC3CCCCC3)cc2C1=O | inactive: 0.985 |
| C[C@@H]1CN([C@@H](C)CO)C(=O)CCCn2cc(nn2)CO[C@@H]1CN(C)C(=O)c1cc(-c2ccccc2)on1 | inactive: 0.99 |
| C[C@@H]1CN([C@H](C)CO)C(=O)Cc2cc(NC(=O)Nc3ccc(C(F)(F)F)cc3)ccc2O[C@@H]1CN(C)C(=O)Nc1ccc2c(c1)OCO2 | inactive: 1.04 |
